# Data as given in the supplement of paper PMC12217912.
# This is one part of the list. Sequences were assembled here from the parent chain. Inactive controls read about 0.05.
# B1: TEV protease; numbered along this chain (parent)
# chain: MGESLFKGPRDYNPISSSICHLTNESDGHTTSLYGIGFGPFIITNKHLFRRNNGTLVVQSLHGVFKVKDTTTLQQHLVDGRDMIIIRMPKDFPPFPQKLKFREPQREERICLVTTNFQTKSMSSMVSDTSCTFPSGDGIFWKHWIQTKDGQCGSPLVSTRDGFIVGIHSASNFTNTNNYFTSVPKNFMELLTNQEAQQWVSGWRLNADSVLWGGHKVFMVKPEEPFQPVKEATQL
# Variants of: B1
# Test: raw area under fraction-flipped curve 0-4 h after induction (AUC4h, not background-subtracted), DNA-recorder readout of cleavage of the substrate (dimensionless); higher = more cleavage of the substrate by the protease variant
# Details: temperature: 34 °C; time window: 0-4 h after rhamnose induction
# Protocol: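 In vivo DNA recorder in E. coli TOP10(DE3) ΔrhaA at 34 °C. Each TEVp single-site mutant (parent TEVp 0) is paired with a single-site variant of the 7-mer TEVs (canonical ENLYFQ|S). The substrate sits between flexible linkers in a Bxb1-sfGFP-TEVs-SsrA fusion, so cleavage stabilises Bxb1 and speeds flipping of a recombination array, read by NGS. The value is the raw area under the fraction-flipped curve over 0-4 h after rhamnose induction (AUC4h), with ≥20 reads per time point. It is not background-subtracted; inactive controls average about 0.047.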
# 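Also: Bxb1 expression induced with 0.2% (w/v) L-rhamnose at OD600 near 0.5, cultures sampled hourly, flipped fraction per protease–substrate barcode pair counted by paired-end Illumina sequencing.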
Variant,area with substrate ENLYDQS,area with substrate ENLYEQS,area with substrate ENLYGQS,area with substrate ENLYHQS,area with substrate ENLYIQS,area with substrate ENLYLQS,area with substrate ENLYMQS,area with substrate ENLYNQS,area with substrate ENLYPQS,area with substrate ENLYRQS,area with substrate ENLYSQS,area with substrate ENLYWQS,area with substrate ENLYYQS,area with substrate ENLYKQS,area with substrate ENLYQQS,area with substrate ENLYVQS,area with substrate ENLYTQS
MGESLFKGPRDYNPISSSICHLTNESDGHTTSLYGIGFGPFIITNKHLFRRNNGTLVVQSLHGVFKVKDTTTLQQHLVDGRDMIIIRMPKDFPPFPQKLKFREPQREERICLVTTNFQTKSMSSMVSDTSCTFPSGDGIFWKHWIQTKDGQCGSPLVSTRDGFIVGIHSASNFTNTNNYYTSVPKNFMELLTNQEAQQWVSGWRLNADSVLWGGHKVFMVKPEEPFQPVKEATQL [F180Y],0.0659,0.0519,0.0629,0.069,0.137,0.102,0.0806,0.0677,0.0629,0.0646,0.0668,0.0965,0.0652,–,–,–,–
MGESLFKGPRDYNPISSSICHLTNESDGHTTSLYGIGFGPFIITNKHLFRRNNGTLVVQSLHGVFKVKDTTTLQQHLVDGRDMIIIRMPKDFPPFPQKLKFREPQREERICLVTTNFQTKSMSSMVSDTSCTFPSGDGIFWKHWIQTKDGQCGSPLVSTRDGFIVGIHSASNFTNTNNYTTSVPKNFMELLTNQEAQQWVSGWRLNADSVLWGGHKVFMVKPEEPFQPVKEATQL [F180T],0.0639,0.0595,–,–,–,–,–,–,0.0515,0.0509,0.0623,–,–,0.0285,0.0573,–,–
MGESLFKGPRDYNPISSSICHLTNESDGHTTSLYGIGFGPFIITNKHLFRRNNGTLVVQSLHGVFKVKDTTTLQQHLVDGRDMIIIRMPKDFPPFPQKLKFREPQREERICLVTTNFQTKSMSSMVSDTSCTFPSGDGIFWKHWIQTKDGQCGSPLVSTRNGFIVGIHSASNFTNTNNYFTSVPKNFMELLTNQEAQQWVSGWRLNADSVLWGGHKVFMVKPEEPFQPVKEATQL [D161N],0.0602,0.0723,–,0.0594,0.0941,0.0508,0.0594,0.0356,0.0676,0.0429,0.0623,0.066,0.062,0.0452,0.0645,0.1,–
MGESLFKGPRDYNPISSSICHLTNESDGHTTSLYGIGFGPFIITNKHLFRRNNGTLVVQSLHGVFKVKDTTTLQQHLVDGRDMIIIRMPKDFPPFPQKLKFREPQREERICLVTTNFQTKSMSSMVSDTSCTFPSGDGIFWKHWIQTKDGQCGSTLVSTRDGFIVGIHSASNFTNTNNYFTSVPKNFMELLTNQEAQQWVSGWRLNADSVLWGGHKVFMVKPEEPFQPVKEATQL [P155T],0.0866,–,0.049,0.0419,–,–,0.0595,0.0592,–,0.0582,0.0543,0.072,0.0475,–,0.0491,0.113,–
MGESLFKGPRDYNPISSSICHLTNESDGHTTSLYGIGFGPFIITNKHLFRRNNGTLVVQSLHGVFKVKDTTTLQQHLVDGRDMIIIRMPKDFPPFPQKLKFREPQREERICLVTTNFQTKSMSSMVSDTSCTFPSGDGIFWKHWIQTKWGQCGSPLVSTRDGFIVGIHSASNFTNTNNYFTSVPKNFMELLTNQEAQQWVSGWRLNADSVLWGGHKVFMVKPEEPFQPVKEATQL [D149W],0.0518,0.0671,0.0423,–,0.0659,–,0.0727,0.0659,0.0421,–,0.0673,–,–,0.0497,0.0518,0.0679,0.0508
MGESLFKGPRDYNPISSSICHLTNESDGHTTSLYGIGFGPFIITNKHLFRRNNGTLVVQSLHGVFKVKDTTTLQQHLVDGRDMIIIRMPKDFPPFPQKLKFREPQREERICLVTTNFQTKSMSSMVSDTSCTFPSGDGIFWKHWIQTKDGQCGSPLVSTRDGFIVGIHSASNFTNTNNYFNSVPKNFMELLTNQEAQQWVSGWRLNADSVLWGGHKVFMVKPEEPFQPVKEATQL [T181N],0.057,–,–,0.0623,0.0626,–,–,0.0557,0.0662,0.0673,–,0.058,0.0581,–,–,0.076,0.0411
MGESLFKGPRDYNPISSSICHLTNESDGHTTSLYGIGFGPFIITNKHLFRRNNGTLVVQSLHGVFKVKDTTTLQQHLVDGRDMIIIRMPKDFPPFPQKLKFREPQREERICLVTTNFQTKSMSSMVSDTSCTFPSGDGIFWKHWIQTKDGKCGSPLVSTRDGFIVGIHSASNFTNTNNYFTSVPKNFMELLTNQEAQQWVSGWRLNADSVLWGGHKVFMVKPEEPFQPVKEATQL [Q151K],0.0463,0.0724,–,–,–,–,0.0645,0.0599,0.0589,0.0614,–,0.0505,–,–,–,–,–
MGESLFKGPRDYNPISSSICHLTNESDGHTTSLYGIGFGPFIITNKHLFRRNNGTLVVQSLHGVFKVKDTTTLQQHLVDGRDMIIIRMPKDFPPFPQKLKFREPQREERICLVTTNFQTKSMSSMVSDTSCTFPSGDGIFWKHWIQTKDGQCGSPLVSTRDQFIVGIHSASNFTNTNNYFTSVPKNFMELLTNQEAQQWVSGWRLNADSVLWGGHKVFMVKPEEPFQPVKEATQL [G162Q],0.0561,–,0.0521,0.0753,–,–,0.0846,–,–,0.0613,0.0814,0.0856,–,0.0406,0.0445,0.0888,–
MGESLFKGPRDYNPISSSICHLTNESDGHTTSLYGIGFGPFIITNKHLFRRNNGTLVVQSLHGVFKVKDTTTLQQHLVDGRDMIIIRMPKDFPPFPQKLKFREPQREERICLVTTNFQTKSMSSMVSDTSCTFPSGDGIFWKHWIQTKDGQCGSPLVSTRDEFIVGIHSASNFTNTNNYFTSVPKNFMELLTNQEAQQWVSGWRLNADSVLWGGHKVFMVKPEEPFQPVKEATQL [G162E],0.045,0.062,0.0538,0.0624,0.11,–,0.0732,–,–,–,0.0664,–,0.0605,0.0765,–,–,–
